Data from PubChem BioAssay AID463173 (ICCB-Longwood Screening Facility, Harvard Medical School, 2010).
In all, about 52,000 compounds went through this assay and about 1,700 (3.3%) were called active. Cut-off read from the data, not from the text of the source: active = survival mostly below about 52% (no sharp cut-off); inactive = mostly above about 56%. The list shows a part of the results.

The molecules below were run on Wild type (assay: S. aureus survival, RN4220 and DeltatarO strains – OD600, teichoic acid synthesis inhibitors, primary screen (AID 463173)). Settings: S. aureus RN4220 wild type/DeltatarO growth, OD600, 18 h, stronger effect = lower value, screened at 18.75 µg/mL (by protocol).
In the case of `CCOC(=O)C(CC)n1nc(C)n2c(cc3occc32)c1=O` (stereo not drawn), the survival was inactive: 120%. `Cc1cccc(OCC(=O)OCc2cc(=O)n3nc(C4CCCCC4)sc3n2)c1` was tested, and the survival was inactive: 100%. With `Cc1ccc(CNC(=O)CCc2c(C)nn(-c3ccc(N4CCCCC4)nn3)c2C)cc1` the survival was inactive: 92%. `Cc1csc2nc(-c3cccc(NC(=O)c4ccccc4Cl)c3)cn12` was tested, and the survival was inactive: 120%. In the case of `Cc1ccc(-c2nc3ccccn3c2Nc2ccc3c(c2)OCO3)cc1`, the survival was inactive: 45%. In the case of `COc1ccc(C(=O)c2cn(Cc3ccc(F)cc3)c3ccc(C)cc3c2=O)cc1`, the survival was inactive: 64%. For `Cc1ccc(S(=O)(=O)NCC(c2ccc(N(C)C)cc2)N2CCOCC2)cc1` (stereo not drawn), the survival was inactive: 65%. With `O=C(NC1CCCCCC1)C1CCN(C(=O)N2CCOc3ccccc32)CC1` the survival was inactive: 85%. In the case of `CC(C)(C)C(=O)NC1CCN(S(=O)(=O)c2ccccc2C(=O)O)CC1`, the survival was inactive: 105%. For `COc1cc(OC)c(N(C)C(=O)Cn2ncc3c([nH]c4ccccc43)c2=O)cc1Cl`, the survival was inactive: 81%. `O=c1c2cc3c(cc2nc2sc(Nc4ccc(F)c(Cl)c4)nn12)OCO3` was tested, and the survival was inactive: 138%. With `Cc1nc(C)c(-c2ccc(SCC(=O)Nc3ccc(F)c(F)c3)nn2)s1` the survival was inactive: 75%. With `CN(Cc1ccccc1)C(=O)C1CCN(S(=O)(=O)Cc2ccccc2)CC1` the survival was inactive: 85%. `COc1cc(/C=C(\C#N)c2nc3ccccc3n2C)cc(OC)c1OC` was tested, and the survival was inactive: 71%. With `Cc1ccc(NC(=O)c2cc(S(=O)(=O)N3CCCC(C)C3)cn2C)c(Br)c1` (stereo not drawn) the survival was inactive: 93%. For `CCOC(=O)/C=C(\C)Nc1cc(-c2ccc(Cl)cc2)[nH]n1`, the survival was inactive: 116%. For `COC(=O)C1=C(C)Nc2ncnn2C1c1ccncc1` (stereo not drawn), the survival was inactive: 100%. For `Cn1c(=O)c2c(-c3cccc(Br)c3)n(CCO)cc2n(C)c1=O`, the survival was inactive: 80%. With `CCOc1ccc(CNC(=O)c2cc3ccccn3n2)cc1OC` the survival was inactive: 91%. In the case of `CCN1CCN(c2oc(/C=C/c3ccccc3OC)nc2C#N)CC1`, the survival was inactive: 87%. In the case of `COc1cccc(NS(=O)(=O)c2ccc3[nH]cc(C(=O)N4CCCCCC4)c(=O)c3c2)c1`, the survival was inactive: 128%. In the case of `CCOC(=O)c1c(-c2ccc(C)cc2)csc1NC(=O)c1nc(SCC)ncc1Cl`, the survival was inactive: 78%. In the case of `Cc1ccc(-n2c(=O)c3ccc(C(=O)NCc4ccccc4Cl)cc3n(Cc3ccccc3F)c2=O)cc1`, the survival was inactive: 80%. `CC1CCN(CCCNC(=O)c2cc(Sc3ccc(F)cc3)nc3ccccc23)CC1` was tested, and the survival was inactive: 74%. `CCc1ccc(CN(Cc2cn[nH]c2-c2ccc(OC)cc2)C(=O)Nc2ccc(C)c(F)c2)cc1` was tested, and the survival was inactive: 77%. For `CNC(=O)/C(C#N)=C/c1cn(CCOc2ccccc2)c2ccccc12`, the survival was inactive: 110%. With `Nc1cccc(-c2cn3ccsc3n2)c1` the survival was inactive: 55%. With `CSc1nnc(NC(=O)Cc2coc3cc(C)ccc23)s1` the survival was inactive: 85%. For `O=C(NC1CC(=O)N(c2cccc(F)c2)C1)C1CC1` (stereo not drawn), the survival was inactive: 75%. For `Cc1ccc(NC(=O)c2oc3ccccc3c2NC(=O)c2ccccc2C)cc1`, the survival was inactive: 86%. For `O=S(=O)(c1ccccc1)N1CCN(C2CCCCCCC2)CC1`, the survival was inactive: 108%. With `CCOC(=O)c1c(-c2ccccc2)oc2ccc(NS(=O)(=O)c3ccc(C)cc3C)cc12` the survival was inactive: 51%. In the case of `COc1ccc(Cn2c(=O)c3cccnc3n(Cc3cccc(OC)c3)c2=O)cc1`, the survival was inactive: 80%. In the case of `CCN(CC)c1cc(C)c2cc(NC(=O)c3ccccc3OC)ccc2n1`, the survival was inactive: 59%. In the case of `Cc1cc(C)c(NC(=O)CSc2nc3nc(C)cc(C)n3n2)c(C)c1`, the survival was inactive: 126%. `CCOc1cc(/C=N/NC(=O)C(OC)c2ccccc2)ccc1O` (stereo not drawn) was tested, and the survival was inactive: 95%. For `Cc1cc(C)c(NC(=O)CSc2ccc(-c3sc(-c4ccccc4)nc3C)nn2)c(C)c1`, the survival was inactive: 73%. In the case of `CCn1c(=O)c2sccc2n2c(CCCC(=O)N3CCN(c4cc(Cl)ccc4C)CC3)nnc12`, the survival was inactive: 78%. `CCCCn1c(SCC(=O)NCCCOC)nc2c(sc3ccccc32)c1=O` was tested, and the survival was inactive: 133%. In the case of `COc1ccc(-c2nnc(SCC(=O)NCc3ccc(C)cc3)nc2-c2ccc(OC)c(OC)c2)cc1OC`, the survival was inactive: 88%. In the case of `O=C(CSc1nc(-c2ccc(F)cc2)[nH]c1-c1ccccc1)NCC1CCCO1` (stereo not drawn), the survival was inactive: 84%. For `N#CC(C#N)=Cc1ccc(-c2ccc3c(c2)COC3=O)o1`, the survival was inactive: 109%. With `CCc1ccc(C(=O)c2cn(CC(=O)Nc3ccc(OC)c(OC)c3)c3ccc(C)cc3c2=O)cc1` the survival was inactive: 80%. With `COc1ccccc1N1CCN(c2ncccc2-c2nc(-c3ccc(Cl)cc3)no2)CC1` the survival was inactive: 81%. With `CCCCOc1cccc(C2c3c(oc4ccccc4c3=O)C(=O)N2c2ccccn2)c1` (stereo not drawn) the survival was inactive: 68%. In the case of `CC(=O)Nc1ccc(-c2cn(CC(=O)NN)cn2)cc1`, the survival was inactive: 111%. `CCS(=O)(=O)N1CCC(n2c(C(F)(F)F)nc3cccnc32)CC1` was tested, and the survival was inactive: 88%. `CCCC1=Nc2cc(C(=O)NC(C)c3ccccc3)ccc2Sc2ccc(C)cc21` (stereo not drawn) was tested, and the survival was inactive: 86%. `Cc1nn(C(=O)c2c(F)cccc2F)c(C)c1S(=O)(=O)N1CCOCC1` was tested, and the survival was inactive: 71%. With `COCCN1C(=O)c2[nH]nc(-c3ccccc3O)c2C1c1ccc(Cl)c(Cl)c1` (stereo not drawn) the survival was active: 3%. For `CCOC(=O)c1ccc(CNS(=O)(=O)c2c(C)ccc3nsnc23)o1`, the survival was inactive: 105%. `O=C(CCN1N=C(c2ccccc2)CCC1=O)NCCc1ccc(Cl)cc1` was tested, and the survival was inactive: 124%. In the case of `O=C(NCCc1ccccc1)c1cc(S(=O)(=O)N2CCCCC2)c[nH]1`, the survival was inactive: 88%. `CCN(CC)c1nc2n(c(=O)n1)CCO2` was tested, and the survival was inactive: 102%. `CCOC(=O)c1cnc2c(ccc3ccccc32)c1Nc1cccc(OC)c1` was tested, and the survival was inactive: 68%. For `Cc1ccc(CN(Cc2ccco2)C(=O)COc2cc(C)c(Cl)c(C)c2)cc1`, the survival was inactive: 89%. `COc1ccc(CCNC(=O)c2ccc3c(c2)N(Cc2ccccc2F)C(=O)c2ccccc2S3(=O)=O)cc1OC` was tested, and the survival was inactive: 159%. With `Cc1cc(C)c2[nH]c(=O)c(CN(Cc3ccc(F)cc3)Cc3nnnn3CC3CCCO3)cc2c1` (stereo not drawn) the survival was inactive: 103%.
